The values below come from ChEMBL document CHEMBL4888484, “Replenishing the malaria drug discovery pipeline: Screening and hit evaluation of the MMV Hit Generation Library 1 (HGL1) against asexual blood stage Plasmodium falciparum ,using a nano luciferase reporter read-out” (2022).

Screen size: about 150,000 compounds; about 540 (0.36%) showed an effect of 50% or more. The list shows a part of the results.

This assay relates to Plasmodium falciparum. The assay can be described thus: Primary screen in NF54 nanoGlo assay, in single point, at 2uM, 72h; a lower Z score goes with more inhibition. The format is functional, Erythrocyte. To be noted: timepoint 72 hour.
Usually % Inhibition stands for the change of the read-out against control, counted positive when it falls. As for `C[C@@H]1C[C@H](Nc2ccccc2)c2ccccc2N1C(=O)Cc1cccc2ccccc12`, the “% Inhibition” value is on record as -6% and the Z score amounted to 0.82.

On to `Cc1cc(C(C)C)nc(N2CCN(C(=O)CCn3cncn3)CC2)n1`, for which the “% Inhibition” value is -15% and the Z score turned out to be 2.34.

Consider `CC(C)C(=O)N1CCN(C(=O)Cc2cccc(O)c2)[C@@H]2CS(=O)(=O)C[C@@H]21`, for which the “% Inhibition” value is 8% and the Z score was -1.16.

In the case of `COc1ccc2c(C)c(C(=O)N3CCC(Nc4ncccn4)CC3)oc2c1`, the “% Inhibition” value is listed as 0% and the Z score amounted to 0.04.

Turning to `CCCN1C(=O)c2c(C(=O)Nc3cccc(Cl)c3)ncn2C[C@@]1(C)C(=O)NC1CCCC1`, the “% Inhibition” value was -15% and the Z score is on record as 2.87.

With `CCOc1cc(C(=O)N(Cc2cccnc2)Cc2ccco2)cc(OCC)c1OCC`, the “% Inhibition” value is 6% and the Z score is -0.81.

Consider `COc1ccc(N2C(=O)c3cc(C)nn3C[C@@]2(C)C(=O)NCc2ccc(F)cc2)cc1`, for which the “% Inhibition” value was -4% and the Z score is listed as 0.7.

On to `Cc1cnc(NCCc2n[nH]c(N)n2)nc1N(C)C`, for which the “% Inhibition” value is -5% and the Z score is on record as 0.68.

For `CN(CCC1CCCC1)c1cccc(CO)c1`, the “% Inhibition” value is -14% and the Z score turned out to be 1.77.

In the case of `COc1ccc(NC(=O)[C@@H]2CCCC[C@@H]2C(=O)N2CCCC2)c2nonc12`, the “% Inhibition” value stood at 0% and the Z score is reported as -0.03.

Take `CNc1ccnc(N2CCN(Cc3cccnc3N)C[C@H](O)C2)n1`: the “% Inhibition” value was 11% and the Z score is listed as -1.49.

Turning to `Cc1cccc(C(=O)Nc2ccccc2N2CCOCC2)n1`, the “% Inhibition” value is recorded as -4% and the Z score is 0.49.

As to `COC(=O)CC[C@@H]1CN(Cc2ccncc2)CC[C@@H]1N1CCN(c2cccc(C(F)(F)F)c2)CC1`, the “% Inhibition” value is reported as -25% and the Z score is reported as 2.31.

Regarding `CCCC1CCC(CN(C)CC(=O)O)CC1` (configuration not stated), the “% Inhibition” value was -5% and the Z score was found to be 0.42.

In the case of `Cc1nc(CCNC(=O)N2C[C@H]3C[C@H](O)[C@@H](O)C[C@H]3C2)sc1Cl`, the “% Inhibition” value turned out to be 5% and the Z score is given as -0.55.

Take `Cc1ccsc1CN(C)CCn1cnnc1C`: the “% Inhibition” value is -9% and the Z score was 1.55.

On to `COc1ccc(CN2CCN(CC3CCC3)CC2)c(OC)c1OC`, for which the “% Inhibition” value is listed as -12% and the Z score amounted to 1.64.

Regarding `CC(C)CCc1nnc(NCc2cccc3cn[nH]c23)o1`, the “% Inhibition” value is 25% and the Z score is listed as -3.15.

Regarding `CC(C)OCCCNC(=O)N1CCC[C@]1(C)CO`, the “% Inhibition” value was -5% and the Z score worked out at 0.88.

Consider `Cc1cc(N2CCN(c3ccccc3Cl)CC2)n2cc(-c3ccccc3)nc2n1`, for which the “% Inhibition” value worked out at 5% and the Z score is recorded as -0.73.

Turning to `COc1ccc(NC(=O)c2c(NC(=O)c3ccncc3)sc3c2CC[C@H](C(C)(C)C)C3)cc1`, the “% Inhibition” value is recorded as 0% and the Z score is on record as -0.01.

`Cc1cnc(NCC(C)(C)N2CCCC2)nc1N(C)C`: the “% Inhibition” value is -4% and the Z score is 0.77.

With `COc1cccc(F)c1[C@H](C)NCC(=O)N1CCC(C)CC1`, the “% Inhibition” value is given as -1% and the Z score is listed as 0.18.

With `COCC(=O)NCCc1ccc(C)c(OC)c1`, the “% Inhibition” value is -7% and the Z score amounted to 1.13.

As to `CC(C)(CNC(=O)[C@@H]1CCC(=O)N1)C1=CCCC1`, the “% Inhibition” value was determined as 40% and the Z score is listed as -5.79.

As to `COC(=O)[C@@H](NCc1ccc(C)cc1)C(C)(C)C`, the “% Inhibition” value was determined as 0% and the Z score was -0.02.

On to `CCC(CC)NC(=O)COc1ccc(C)cc1`, for which the “% Inhibition” value turned out to be 13% and the Z score is on record as -1.67.

Turning to `C[C@]1(COc2ccncc2)CCCN(Cc2ccc(Cl)c(F)c2)C1`, the “% Inhibition” value was -5% and the Z score turned out to be 0.8.

Consider `O=C(O)[C@@H]1CCCN1C(=O)[C@H](Cc1ccccc1)NC(=O)[C@H](Cc1ccccc1)n1c(O)nc2ccccc2c1=O`, for which the “% Inhibition” value is recorded as -7% and the Z score came out at 0.82.

Turning to `OC1CCC(Nc2nc(-c3ccccn3)nc3c2CCC3)CC1` (configuration not stated), the “% Inhibition” value was found to be 32% and the Z score is recorded as -3.61.

With `Cc1sc(-c2nc(C(C)C)cs2)cc1S(=O)(=O)NCc1ccc(N(C)C)cc1`, the “% Inhibition” value is reported as -6% and the Z score came out at 0.7.

With `CCNc1ccc(C(=O)OCC)cc1NC(=O)CC(C)(C)C#N`, the “% Inhibition” value is reported as -6% and the Z score stood at 1.07.

Turning to `Cc1ccc(CN2CC(CN(CC(C)C)C(=O)c3ccccc3)C(c3ccc(F)cc3)C2)cc1` (configuration not stated), the “% Inhibition” value is -7% and the Z score was 1.26.

Regarding `COc1cc(NC(=O)N[C@@H](C)c2c(C)nn(C)c2C)cc(-n2cnnn2)c1`, the “% Inhibition” value is given as 5% and the Z score was -0.72.

`CC(C)N1CCCC[C@@H]1COc1ccc(CCO)cc1`: the “% Inhibition” value amounted to 5% and the Z score is -0.87.

Take `Cn1ncc(C(=O)Nc2nnc(C3CC3)n2C)c1C(F)F`: the “% Inhibition” value was -3% and the Z score is 0.4.

Take `COC[C@]1(C)NC(=O)N(Cc2nc(C)c(C)s2)C1=O`: the “% Inhibition” value is reported as 14% and the Z score was -1.79.

In the case of `Cc1cc(NC(=O)CN2CCN(S(=O)(=O)c3cc(F)ccc3F)CC2)ccc1N1CCCC1`, the “% Inhibition” value is listed as -5% and the Z score came out at 0.68.

`C#CCN1CCC(N2CC(=O)N(c3ccccc3)C2=O)CC1`: the “% Inhibition” value is -5% and the Z score is reported as 0.57.

Regarding `CC(C)(C)OC(=O)NCCc1nnc2n1CCCC2`, the “% Inhibition” value was determined as 0% and the Z score stood at 0.01.

As to `CN(CCN1CCOCC1)c1nnc(-c2ccccc2)s1`, the “% Inhibition” value is listed as -13% and the Z score came to 2.61.
